This is an account of results in PubChem BioAssay AID1645887 (National Center for Advancing Translational Sciences (NCATS), 2021).

Values joined by “and” are separate entries in the source; they are usually repeats but may differ in a detail not shown here. Equal values may be shown once. Screen size: about 16,000 compounds; about 40 (0.2%) were called active. Roughly 1% stayed inconclusive and do not appear here. Calls follow the shape of the dose curve; as a rule, active = well fitted activation curve with a large enough effect; inconclusive = small, poorly fitted or top-dose-only effect, or another doubt; inactive = no such curve, though single readings can be large or run the other way. The list shows a part of the results.
% is scaled to controls: 0 for no effect and ±100 for the full control effect.

Sequence of UniProt Q8WZA2 (Q8WZA2 whole entry, looked up): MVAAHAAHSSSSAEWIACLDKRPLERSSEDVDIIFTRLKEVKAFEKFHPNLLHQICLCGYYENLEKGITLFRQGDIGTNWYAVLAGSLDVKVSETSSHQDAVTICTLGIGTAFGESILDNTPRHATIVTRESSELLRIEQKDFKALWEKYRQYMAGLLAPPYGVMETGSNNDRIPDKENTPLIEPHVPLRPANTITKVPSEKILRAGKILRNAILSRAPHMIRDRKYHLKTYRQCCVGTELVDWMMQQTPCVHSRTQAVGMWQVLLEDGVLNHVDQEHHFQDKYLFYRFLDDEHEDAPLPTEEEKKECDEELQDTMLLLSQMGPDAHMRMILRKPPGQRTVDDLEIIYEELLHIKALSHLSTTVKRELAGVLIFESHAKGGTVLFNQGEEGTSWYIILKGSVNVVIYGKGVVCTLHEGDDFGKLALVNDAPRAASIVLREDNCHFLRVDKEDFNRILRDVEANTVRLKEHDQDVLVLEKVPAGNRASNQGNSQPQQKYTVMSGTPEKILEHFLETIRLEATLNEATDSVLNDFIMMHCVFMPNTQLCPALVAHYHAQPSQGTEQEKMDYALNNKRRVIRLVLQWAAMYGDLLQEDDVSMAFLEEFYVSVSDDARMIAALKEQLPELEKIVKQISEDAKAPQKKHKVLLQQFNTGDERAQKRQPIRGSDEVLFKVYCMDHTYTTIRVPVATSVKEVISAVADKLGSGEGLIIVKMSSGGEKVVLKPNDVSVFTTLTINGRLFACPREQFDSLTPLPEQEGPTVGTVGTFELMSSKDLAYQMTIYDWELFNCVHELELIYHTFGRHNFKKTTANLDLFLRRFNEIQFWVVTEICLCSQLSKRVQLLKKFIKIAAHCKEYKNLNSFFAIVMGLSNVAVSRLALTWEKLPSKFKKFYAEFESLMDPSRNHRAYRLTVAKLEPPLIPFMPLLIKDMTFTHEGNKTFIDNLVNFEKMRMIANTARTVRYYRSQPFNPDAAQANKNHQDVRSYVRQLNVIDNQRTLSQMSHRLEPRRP

In this experiment the target is Rap guanine nucleotide exchange factor 4 (Homo sapiens) (UniProt Q8WZA2). Nature of the experiment: Validation qHTS for agonist of cAMP-regulated guanine nucleotide exchange factor 4 (EPAC2).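 Also: exchange makes BODIPY-GDP fluorescence drop when released from Rap1B; series mostly up to about 150 µM.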 The settings on record: EPAC2 Rap1B BODIPY-GDP exchange, fluorescence; activation: active compounds read high. In outline:
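Signal normalized against 6.5 mM cAMP as agonist control. Mix of EPAC2 (100 nM), RAP1B-BODIPY-GDP (250 nM) and GDP (50 uM) was read kinetically at 480/540 nm, every 5 min over 30 min, after 5 min room-temperature incubation with compound.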
Consider `C[C@@](Cc1ccc(O)c(O)c1)(NN)C(=O)O`, for which the activation was inactive: -7.82% and inactive: -15.8%.
The same measure for `CC(NC(=O)c1cccnc1)c1nnc2n1CCN(Cc1ccc(-c3ccccc3Cl)o1)CC2` (stereo not drawn): inactive: 2.73%; for `Cc1ccc(SCCN2CCC(NC(=O)OCc3ccccc3)CCC2=O)cc1` (stereo not drawn): inactive: -18.7%; for `c1cncc(OC2CCN(Cc3ccc4c(c3)CN(Cc3ccc5c(c3)CCO5)CCO4)CC2)c1`: inactive: -2.1%.
Consider `COc1ccc(Nc2ncc3nc(-c4cccs4)c(=O)n(Cc4cccc(OC)c4)c3n2)cc1`, for which the activation is inactive: -12.7%.
The figure for `COC(=O)C1N[C@@H]([C@@H](NC(=O)COc2ccccc2)C(=O)NC2CC2)SC1(C)C` (stereo partly drawn) is inactive: -15.8%.
The same measure for `O=c1c(-c2cc(F)cc(F)c2)nc2cnc(N3CCNCC3)nc2n1-c1ccccc1`: inactive: -21.8%.
The figure for `COc1ccccc1-c1nc(NC2CC2)c2ccccc2n1` is inactive: -30.4%; for `O=c1[nH]cnc2nc[nH]c12` it is inactive: -15.8%.
For the compound `Nc1ccc2nc[nH]c2c1`, the activation is inactive: -7.36%.
The figure for `CCCCCCCCCCCCCCCC[n+]1ccc(CC(O)c2c(C)[nH]c3ccccc23)c2ccccc21` (stereo not drawn) is inactive: -32.6%.
The figure for `CC(=O)OC1CC[C@]2(C)C(=CCC3C4CCC(C(C)CCCC(C)C)[C@]4(C)CCC32)C1` (stereo partly drawn) is inactive: -16.6%; for `CC(C)(C)c1ccc(O)c(O)c1` it is inactive: -17.1%; for `CN1CC(O)C(O)C(O)C1CO` (stereo not drawn) it is inactive: -29.9%.
The same measure for `COc1cccc(OC)c1CN1CCC2(CCC(CNC(=O)c3ccn(C)n3)O2)CC1` (stereo not drawn): inactive: -2.73%; for `Cc1ccc(S(=O)(=O)NCc2ccccc2)cc1`: inactive: -25.6%.
Consider `O=C(O)/C=C/C(O)c1ccc(Cl)cc1` (stereo not drawn), for which the activation is inactive: 5.52% and inactive: 1.64%.
The figure for `c1ccc(C(c2ccccc2)N2CCCC3(CCNCC3)C2)cc1` is inactive: -10.4%; for `C[C@]12CCC(=O)C=C1CC[C@@H]1[C@@H]2CC[C@@]2(C)[C@H]1CC[C@]2(O)C(=O)CO` it is inactive: 0.99% and inactive: -53.5%.
The figure for `COC(=O)C1=C(C)NC(C)=C(C(=O)OC(C)(C)CN(C)CCC(c2ccccc2)c2ccccc2)C1c1cccc([N+](=O)[O-])c1` (stereo not drawn) is inactive: 8.11% and inactive: -22%; for `CC(C)Cc1nc2cc(NS(=O)(=O)N(C)C)cc(C(=O)N3CCN(c4ccccc4)CC3)c2n1C` it is inactive: 4.11%.
The same measure for `COc1cc(/C=C/C(=O)/C=C(O)/C=C/c2ccc(O)c(OC)c2)ccc1O`: inactive: 29.7%; for `Nc1nc2c(ncn2C2OC(COC(=O)c3ccccc3)C(OC(=O)c3ccccc3)C2OC(=O)c2ccccc2)c(=O)[nH]1` (stereo not drawn): inactive: -20.2%.
